{
  "source": "paper PMC4336329",
  "about": "(PLoS ONE, 2015)",
  "note": "Screen size: about 310,000 compounds; about 14,000 (4.5%) showed an effect of 50% or more. The effect is printed as a negative number. Some of the results follow.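 Also: peak tail current of the secondary pulse compared with the same well before compound.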",
  "data": [
    {"target": "human ether-à-go-go-related gene (hERG) potassium channel (human, UniProt Q12809)", "sequence (Q12809 whole entry, looked up)": "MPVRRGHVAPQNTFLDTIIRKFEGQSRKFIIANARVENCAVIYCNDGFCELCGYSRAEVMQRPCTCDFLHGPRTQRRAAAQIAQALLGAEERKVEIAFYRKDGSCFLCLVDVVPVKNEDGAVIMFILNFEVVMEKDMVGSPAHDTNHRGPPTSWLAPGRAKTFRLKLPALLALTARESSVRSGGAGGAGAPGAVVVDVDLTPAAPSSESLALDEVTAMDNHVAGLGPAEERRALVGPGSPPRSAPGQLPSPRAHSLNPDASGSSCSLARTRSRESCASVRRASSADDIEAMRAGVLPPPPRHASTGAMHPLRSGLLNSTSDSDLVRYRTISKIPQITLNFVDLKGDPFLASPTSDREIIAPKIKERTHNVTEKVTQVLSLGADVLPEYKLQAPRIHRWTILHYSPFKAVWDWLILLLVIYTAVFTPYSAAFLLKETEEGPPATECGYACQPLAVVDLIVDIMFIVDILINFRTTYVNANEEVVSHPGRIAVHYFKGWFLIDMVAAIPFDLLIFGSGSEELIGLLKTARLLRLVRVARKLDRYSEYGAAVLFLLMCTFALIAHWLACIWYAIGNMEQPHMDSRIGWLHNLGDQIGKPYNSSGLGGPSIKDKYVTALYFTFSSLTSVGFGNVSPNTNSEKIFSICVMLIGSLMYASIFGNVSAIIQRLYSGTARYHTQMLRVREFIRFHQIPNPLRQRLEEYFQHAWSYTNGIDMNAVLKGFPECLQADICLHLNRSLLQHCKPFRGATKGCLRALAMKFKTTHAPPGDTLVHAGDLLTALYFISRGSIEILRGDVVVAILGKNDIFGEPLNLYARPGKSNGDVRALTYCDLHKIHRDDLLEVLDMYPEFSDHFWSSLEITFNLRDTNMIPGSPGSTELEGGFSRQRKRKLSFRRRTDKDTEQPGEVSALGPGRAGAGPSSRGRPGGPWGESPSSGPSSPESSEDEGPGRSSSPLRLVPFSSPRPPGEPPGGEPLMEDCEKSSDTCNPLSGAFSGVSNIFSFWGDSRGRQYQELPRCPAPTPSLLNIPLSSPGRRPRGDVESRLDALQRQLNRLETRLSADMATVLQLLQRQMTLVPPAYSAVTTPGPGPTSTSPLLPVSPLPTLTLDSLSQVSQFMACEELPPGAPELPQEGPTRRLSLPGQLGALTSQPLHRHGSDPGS", "assay": "primary screen, population patch clamp on CHO cells stably expressing hERG", "units": {"hERG current change (%, negative = inhibition) at 10uM": "%"}, "values": [
      {"smiles": "COc1cccc(CNC(=O)CCS(=O)(=O)c2ccc3c(c2)oc(=O)n3C)c1", "hERG current change (%, negative = inhibition) at 10uM": 3.87},
      {"smiles": "COc1cccc(OC)c1C(=O)Nc1ccc(C)cc1C(=O)c1ccccc1", "hERG current change (%, negative = inhibition) at 10uM": -8.33},
      {"smiles": "CCCC(C)NC(=O)c1ccc(F)cc1", "note": "(centres unmarked)", "hERG current change (%, negative = inhibition) at 10uM": 13.2},
      {"smiles": "CCn1c(SCC(=O)Nc2nc(-c3ccccc3)cs2)nnc1-c1ccccc1", "hERG current change (%, negative = inhibition) at 10uM": -66.6},
      {"smiles": "Nc1nc(-c2ccccc2)c(-c2ccccc2)s1", "hERG current change (%, negative = inhibition) at 10uM": -2.18},
      {"smiles": "Fc1ccc(Nc2ccnc(Nc3ccc(F)cc3)n2)cc1", "hERG current change (%, negative = inhibition) at 10uM": 8.33},
      {"smiles": "COc1ccc(C2C(C(=O)N3CCCCC3)c3ccccc3C(=O)N2C)cc1", "note": "(centres unmarked)", "hERG current change (%, negative = inhibition) at 10uM": -1.72},
      {"smiles": "Cc1nnc(NCCc2ccccc2)[nH]c1=O", "hERG current change (%, negative = inhibition) at 10uM": -18.8},
      {"smiles": "O=C(Cc1ccccc1)N1CCN(C2CCCCCC2)CC1.O=C(O)C(=O)O", "hERG current change (%, negative = inhibition) at 10uM": -19.2},
      {"smiles": "CSc1nc(Cl)cc(Nc2ccccc2N)n1", "hERG current change (%, negative = inhibition) at 10uM": -0.448},
      {"smiles": "CC(C)(C)NC(=O)Cn1c(-c2nonc2N)nc2ccccc21", "hERG current change (%, negative = inhibition) at 10uM": 6.64},
      {"smiles": "Cc1ccc(C(=O)c2c(NC(=O)c3ccncc3)sc3c2CCCC3)cc1", "hERG current change (%, negative = inhibition) at 10uM": -3.98},
      {"smiles": "COc1cccc(CNS(=O)(=O)c2cc3c(cc2C)n(C)c(=O)c(=O)n3C)c1", "hERG current change (%, negative = inhibition) at 10uM": -8.04},
      {"smiles": "O=C(CN1C(=O)NC2(CCCCCC2)C1=O)NCCc1ccccc1", "hERG current change (%, negative = inhibition) at 10uM": 1.14},
      {"smiles": "COc1cccc(N2CCN(c3cnc4ccccc4n3)CC2)c1", "hERG current change (%, negative = inhibition) at 10uM": -5.16},
      {"smiles": "O=C(O)CCCC(=O)Nc1ccc(N2CCCC2)cc1", "hERG current change (%, negative = inhibition) at 10uM": 5.13},
      {"smiles": "CCn1c(SCC(=O)N(C)c2c(N)n(Cc3ccccc3)c(=O)[nH]c2=O)nc2ccccc21", "hERG current change (%, negative = inhibition) at 10uM": 7.16},
      {"smiles": "CC(=O)Nc1cccc(NC(=O)c2oc3ccccc3c2C)c1", "hERG current change (%, negative = inhibition) at 10uM": -29.3},
      {"smiles": "COC(=O)c1ccc(NC(=O)CNCc2ccncc2)cc1.O=C(O)C(=O)O", "hERG current change (%, negative = inhibition) at 10uM": 18.1},
      {"smiles": "Oc1c(Br)cc(/C=N/NC(=S)NCc2ccco2)cc1Br", "hERG current change (%, negative = inhibition) at 10uM": 23.9},
      {"smiles": "COCCSc1ccccc1C(=O)Nc1ccc(Cl)cn1", "hERG current change (%, negative = inhibition) at 10uM": -10.3},
      {"smiles": "Cc1cccc(NC(=O)C2CCN(S(=O)(=O)c3ccc4c(c3)NC(=O)CO4)CC2)c1C", "hERG current change (%, negative = inhibition) at 10uM": 14},
      {"smiles": "CCN(CC)CCNC(=O)c1ccc(NC(=O)c2ccccc2-c2ccc(C(F)(F)F)cc2)cc1", "hERG current change (%, negative = inhibition) at 10uM": -24.2},
      {"smiles": "O=C(NCC1OCCc2ccccc21)C1COc2ccccc2O1", "note": "(centres unmarked)", "hERG current change (%, negative = inhibition) at 10uM": 2.5},
      {"smiles": "CCC(=O)c1c(O)n(C2CCCCCC2)c(=O)[nH]c1=O", "hERG current change (%, negative = inhibition) at 10uM": 15.8},
      {"smiles": "Fc1ccc(CNCc2ccccc2Cl)cc1.O=C(O)C(=O)O", "hERG current change (%, negative = inhibition) at 10uM": -5.05},
      {"smiles": "CCOc1ccc(NC(=O)CN(C)C(=O)c2cn(-c3ccccc3)nc2-c2cccs2)cc1OCC", "hERG current change (%, negative = inhibition) at 10uM": -0.539},
      {"smiles": "Cc1ccccc1-n1c(=O)cc(NCC2CCCO2)[nH]c1=O", "note": "(centres unmarked)", "hERG current change (%, negative = inhibition) at 10uM": 4.82},
      {"smiles": "Brc1ccc(-c2csc3ncnc(-n4nnc5ccccc54)c23)cc1", "hERG current change (%, negative = inhibition) at 10uM": -4.63},
      {"smiles": "O=C(N/N=C/c1cc(Cl)ccc1O)c1cccnc1", "hERG current change (%, negative = inhibition) at 10uM": 15.6},
      {"smiles": "CCCCCCCCCCOC(=O)Cn1c(COc2ccc(OC)cc2)[n+](C)c2ccccc21.[Cl-]", "hERG current change (%, negative = inhibition) at 10uM": -83.3},
      {"smiles": "CCCCNC(=O)N(O)C1N(/N=C/c2ccccc2O)C(=S)SC1(C)C", "note": "(centres unmarked)", "hERG current change (%, negative = inhibition) at 10uM": -0.0707},
      {"smiles": "Cc1ccc(S(=O)(=O)N2CCN(Cc3ccco3)CC2)c(C)c1", "hERG current change (%, negative = inhibition) at 10uM": -35.6},
      {"smiles": "CCN(CC)CCCNC(=O)CCC(=O)Nc1ccc2nc(N3CCC(C)CC3)cc(C)c2c1", "hERG current change (%, negative = inhibition) at 10uM": 10},
      {"smiles": "CCC(C)(C)n1nnnc1C(c1cc2ccc(OC)cc2[nH]c1=O)N1CCc2ccccc21", "note": "(centres unmarked)", "hERG current change (%, negative = inhibition) at 10uM": -1.92},
      {"smiles": "Cc1ccc(NC(=O)CSc2nnc(-c3cccnc3)s2)cc1", "hERG current change (%, negative = inhibition) at 10uM": -4.36},
      {"smiles": "COc1ccc(OCc2ccc(C(=O)O)cc2)cc1", "hERG current change (%, negative = inhibition) at 10uM": 8.41},
      {"smiles": "O=C(COc1ccc(Cl)cc1Cl)Nn1c(=S)[nH]c2ncccc2c1=O", "hERG current change (%, negative = inhibition) at 10uM": -38.1},
      {"smiles": "Cc1sc2ncnc(N3CCC(C(=O)NNC(=O)COc4ccccc4Cl)CC3)c2c1C", "hERG current change (%, negative = inhibition) at 10uM": -38.6},
      {"smiles": "COc1cccc(CNC(=O)CCC(=O)N2Cc3cccc(OC)c3Oc3ncccc32)c1OC", "hERG current change (%, negative = inhibition) at 10uM": 2.96},
      {"smiles": "CC(C)N(C1=CC(=O)OC12CCCCC2)C(C)C", "hERG current change (%, negative = inhibition) at 10uM": -0.582},
      {"smiles": "O=C(Nc1cccc(-c2nc3ccccc3c(=O)o2)c1)c1ccccc1", "hERG current change (%, negative = inhibition) at 10uM": 13.4},
      {"smiles": "CC1=C(C(=O)OC(C)C)[C@]2(C(=O)N(CC(N)=O)c3ccccc32)C(C#N)=C(N)O1", "hERG current change (%, negative = inhibition) at 10uM": 10.7},
      {"smiles": "COc1ccc(C(=O)NCC(=O)OCC(=O)c2ccc3c(c2)NC(=O)CO3)cc1OC", "hERG current change (%, negative = inhibition) at 10uM": -22},
      {"smiles": "Cc1ccc(C(c2sc3nc(C)nn3c2O)N2CCOCC2)cc1", "note": "(centres unmarked)", "hERG current change (%, negative = inhibition) at 10uM": 9.56},
      {"smiles": "CCOc1ccc(OCc2ccc(C(=O)N/N=C(\\C)c3ccccn3)cc2)cc1", "hERG current change (%, negative = inhibition) at 10uM": 6.67},
      {"smiles": "O=C(Nc1ccc(F)cc1)N1CCN(CCc2ccccc2)CC1", "hERG current change (%, negative = inhibition) at 10uM": -52.3},
      {"smiles": "Oc1ccc(C(=S)N2CCCC2)cc1", "hERG current change (%, negative = inhibition) at 10uM": 14.4},
      {"smiles": "CCNc1c([N+](=O)[O-])c(=O)n(CC)c2ccccc12", "hERG current change (%, negative = inhibition) at 10uM": -5.73},
      {"smiles": "CC(NC(=O)c1cn(C)c2ccc(S(=O)(=O)N3CCCC3)cc2c1=O)c1ccc2c(c1)OCCO2", "note": "(centres unmarked)", "hERG current change (%, negative = inhibition) at 10uM": 11.3},
      {"smiles": "COc1cc(C(C)=O)ccc1OCC(=O)NCC1(N2CCCCC2)CCCCC1", "hERG current change (%, negative = inhibition) at 10uM": -11.4},
      {"smiles": "CCC1(c2ccccc2)NC(=O)N(CC(=O)Nc2ccc(S(=O)(=O)N3CC(C)CC(C)C3)cc2)C1=O", "note": "(centres unmarked)", "hERG current change (%, negative = inhibition) at 10uM": 15.2},
      {"smiles": "Cc1ccccc1NC(=O)COc1nsnc1N1CCOCC1", "hERG current change (%, negative = inhibition) at 10uM": 5.72},
      {"smiles": "Cc1nn(-c2ccc(F)cc2)c(Cl)c1/C=C/C(=O)N1CCNC(=O)C1", "hERG current change (%, negative = inhibition) at 10uM": 7.33},
      {"smiles": "CCc1cccc(CC)c1NC(=O)CN1CCN(c2ccccc2)CC1.Cl", "hERG current change (%, negative = inhibition) at 10uM": -15.7},
      {"smiles": "COc1cccc(NC(=O)CN(C)C(=O)c2cccc(S(=O)(=O)N3CCN(c4ccccc4)CC3)c2)c1", "hERG current change (%, negative = inhibition) at 10uM": 4.56}
    ]}
  ]
}
